# Source: PubChem BioAssay (NCATS)
# Where “and” joins values, the source holds several entries; their conditions need not be identical. Equal values may be shown once. The inconclusive results got no clear call from the source; some entries with a clear call stand among them for comparison. For some of these results: Potencies beside an inconclusive call are fits to weak or partial responses and may not hold up. Calls of active or inactive are those of the source. Calls follow the shape of the dose curve; as a rule, active = well fitted curve in the direction sought with a large enough effect; inconclusive = small, poorly fitted or top-dose-only effect, or another doubt; inactive = no such curve, though single readings can be large; an effect the other way counts as inactive or inconclusive.
# Assays:
# [1] = Viability qHTS for spleen associated tyrosine kinase inhibitor (SYKi) drug resistant MV4-11 cells (AID 1963824); also: nearly all actives have a fitted effect of over 35% in size; also: potency is read from the fitted curve at half-maximal effect
# In short: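 SYK-inhibitor-resistant MV4-11 AML cells were seeded at 500 per well onto compound and cultured 72 hours (37 °C, 5% CO2). CellTiter-Glo was then added, and after 10 min at room temperature, luminescence gave viability.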
# [2] = Quantitative highthroughput screen to assess conditional lethalithy of NOMO1 cells grown in RPMI1640 with dialyzed fetal bovine serum (RPMI+ds) (AID 1963877); also: nearly all actives have a fitted effect of over 30% in size; also: potency is read from the fitted curve at half-maximal effect;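 as to Viability: 100% = DMSO control wells and 0% = empty wells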
# In short: (§1)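 Each medium arm—HPLM with 10% dialyzed FBS, or RPMI1640 with 5 mM glucose and 10% untreated or dialyzed FBS—was screened against an 11-point, 3-fold compound titration for 48 h at 37 °C, with CellTiter-Glo luminescence as endpoint.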
# [3] = Quantitative highthroughput screen to assess conditional lethalithy of SEM cells grown in Human Plasma-Like Medium with dialyzed fetal bovine serum (HPLM+ds) (AID 1963882); also: nearly all actives have a fitted effect of over 35% in size; also: potency is read from the fitted curve at half-maximal effect
# In short: as §1
# [4] = Quantitative highthroughput screen to assess conditional lethalithy of NOMO1 cells grown in RPMI1640 with untreated serum (RPMI+s) (AID 1963876); conditions: NOMO1 AML cells in RPMI+serum, CellTiter-Glo viability, 48 h; viability: at 45.8 µM (top of the series);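 also: 100% = DMSO wells and 0% = empty wells without cells; nearly all actives have a fitted effect of over 35% in size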
# In short: as §1
# [5] = Quantitative highthroughput screen to assess conditional lethalithy of SEM cells grown in RPMI1640 with unreated serum (RPMI+s) (AID 1963883); conditions: SEM B-ALL cells, CellTiter-Glo viability, 48 h; viability: at 45.8 µM (top of the series); also: nearly all actives have a fitted effect of over 35% in size; also: potency is read from the fitted curve at half-maximal effect;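 as to Viability: 100% = DMSO wells and 0% = empty wells without cells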
# In short: as §1
# [6] = Quantitative highthroughput screen to assess conditional lethalithy of SEM cells grown in RPMI1640 with dialyzed fetal bovine serum (RPMI+ds) (AID 1963884); conditions: SEM B-ALL cells, RPMI+dialyzed FBS, CellTiter-Glo viability, 48 h; viability: at 45.8 µM (top of the series); also: nearly all actives have a fitted effect of over 35% in size; also: potency is read from the fitted curve at half-maximal effect;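 as to Viability: 100% = DMSO control wells and 0% = empty wells without cells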
# In short: as §1
# [7] = Quantitative highthroughput screen to assess conditional lethalithy of NOMO1 cells grown in Human Plasma-Like Medium with dialyzed fetal bovine serum (HPLM+ds) (AID 1963878); conditions: NOMO1 AML cells in HPLM+ds, CellTiter-Glo viability, 48 h; viability: at 45.8 µM (top of the series); also: nearly all actives have a fitted effect of over 35% in size; also: potency is read from the fitted curve at half-maximal effect;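 as to Viability: 100% = DMSO wells and 0% = empty wells on each plate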
# In short: as §1
# [8] = Quantitative highthroughput screen to assess conditional lethalithy of P12 Ichikawa cells grown in Human Plasma-Like Medium with dialyzed fetal bovine serum (HPLM+ds) (AID 1963879); conditions: Potency: viability; also: nearly all actives have a fitted effect of over 35% in size; also: potency is read from the fitted curve at half-maximal effect
# In short: as §1
# [9] = Quantitative highthroughput screen to assess conditional lethalithy of P12 Ichikawa cells grown in RPMI1640 with dialyzed fetal bovine serum (RPMI+ds) (AID 1963880); conditions: Potency: P12-Ichikawa viability; also: nearly all actives have a fitted effect of over 35% in size; also: potency is read from the fitted curve at half-maximal effect;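 as to Viability: 100% = DMSO wells and 0% = empty wells on each plate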
# In short: as §1
# [10] = Cellular viability qHTS for adrenocortical cancer (ACC) cell line SW-13 (AID 1963989); conditions: SW-13 ACC cells viability, CellTiter-Glo, 48 h; activity (max response): stronger effect = lower value;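 also: cells grown in serum-free medium with ITS supplement; % is scaled to controls: 0 for no effect and ±100 for the full control effect; nearly all actives have a fitted effect of over 65% in size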
# In short: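 IC50 and maximal-response values come from four-parameter logistic fits of titration data. SW-13 cells in serum-free medium received compounds (up to 46 uM final) for 48 h before CellTiter-Glo luminescence.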
# [11] = Quantitative highthroughput screen to assess conditional lethalithy of P12 Ichikawa cells grown in RPMI1640 with untreated serum (RPMI+s) (AID 1963881); conditions: Potency: viability
# In short: as §1
# [12] = Cellular viability qHTS for adrenocortical cancer (ACC) cell line NCI-H295R (AID 1963990); conditions: CellTiter-Glo ATP luminescence, 48 h; activity change, negative = viability loss: at 46.1 µM (top of the series); also: nearly all actives have a fitted effect of over 60% in size; also: potency is read from the fitted curve at half-maximal effect;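 as to activity change, negative = viability loss: 0% = DMSO only wells and -100% = full killing with cytotoxic reference compound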
# In short: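 Adrenocortical carcinoma cells, suspended at 300 000 cells/mL in serum-free DMEM plus ITS, rested overnight before pin transfer of compound. After two days' incubation, ATP-dependent luminescence was recorded and curve-fitted.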
# Tags tell the direction and shape of the fitted curve.
smiles,measurement,setting,value
CC[C@@H]([C@H](C)O)n1ncn(-c2ccc(N3CCN(c4ccc(OCC5CO[C@@](Cn6cncn6)(c6ccc(F)cc6F)C5)cc4)CC3)cc2)c1=O (stereo not given in full),Potency,[1],active: 4.17 µM
same,Potency,[2],inactive
same,Potency,[3],"inconclusive: 11.8 µM [cytotoxic, single point]"
CCOCC(O)COc1ccc(NC(=O)CC[S+](C)C)cc1 (stereo not given),Potency,[1],inactive
same,Potency,[4],inactive
same,Potency,[5],inactive
same,Potency,[6],inactive
CC(C(=O)O)c1ccc2c(c1)CC(=O)c1ccccc1S2 (stereo not given),Potency,[1],inactive
same,Potency,[2],"inconclusive: 7.43 µM [cytotoxic, full curve]"
same,Potency,[7],"inconclusive: 3.72 µM [cytotoxic, full curve]"
same,Potency,[8],"inconclusive: 10.5 µM [cytotoxic, full curve]"
same,Potency,[9],active: 10.5 µM
same,activity (max response),[10],inactive: -16.4% and inactive: 14.9%
C[C@]1(CO)CN(c2cc(C(=O)Nc3ccc4c(c3)-c3c(c(C(N)=O)nn3-c3ccc(F)cc3)CC4)c(Cl)cn2)C[C@@]1(C)CO,Potency,[1],active: 2.91 µM
same,Potency,[2],"inconclusive: 26.4 µM [cytotoxic, single point]"
same,Potency,[7],"inconclusive: 18.7 µM [cytotoxic, partial curve]"
same,Potency,[9],"inconclusive: 11.8 µM [cytotoxic, partial curve]"
same,Potency,[5],"inconclusive: 0.469 µM [cytotoxic, partial curve, poor fit]"
O=C(CCCCCCC(=O)Nc1ccc([C@H]2O[C@@H](CSc3nc(-c4ccccc4)c(-c4ccccc4)o3)C[C@@H](c3ccc(CO)cc3)O2)cc1)NO,Potency,[1],"inconclusive: 6.79 µM [cytotoxic, single point]"
same,Potency,[7],active: 8.33 µM
same,Potency,[8],active: 4.69 µM
same,Potency,[9],active: 3.32 µM
same,Potency,[5],active: 7.43 µM
CC(C)(C)c1nc2c3cc[nH]c(=O)c3c3cc(F)ccc3c2[nH]1,Potency,[1],active: 0.651 µM
same,Potency,[7],active: 2.09 µM
same,Potency,[8],"inconclusive: 3.72 µM [cytotoxic, full curve]"
same,Potency,[9],"inconclusive: 2.96 µM [cytotoxic, full curve, poor fit]"
same,Potency,[11],"inconclusive: 2.35 µM [cytotoxic, full curve, poor fit]"
same,Potency,[3],"inconclusive: 2.09 µM [cytotoxic, full curve]"
same,Potency,[5],"inconclusive: 2.96 µM [cytotoxic, full curve]"
same,Potency,[6],"inconclusive: 2.09 µM [cytotoxic, full curve]"
c1ccc2[nH]c(-c3cscn3)nc2c1,Potency,[1],"inconclusive: 211 nM [cytotoxic, full curve] and inconclusive: 33.2 µM [cytotoxic, single point]"
same,Potency,[7],active: 8.33 µM
same,Potency,[9],"inconclusive: 20.9 µM [cytotoxic, partial curve]"
same,Potency,[11],"inconclusive: 23.5 µM [cytotoxic, partial curve, poor fit]"
same,Potency,[3],"inconclusive: 1.48 µM [cytotoxic, partial curve, poor fit]"
same,Potency,[5],"inconclusive: 8.33 µM [cytotoxic, single point]"
same,Potency,[6],"inconclusive: 2.09 µM [cytotoxic, partial curve, poor fit]"
CC(c1cc2ccccc2s1)N(O)C(N)=O (stereo not given),Potency,[1],"inconclusive: 0.0023 µM [rising, full curve, poor fit]"
same,Potency,[7],"inconclusive: 0.296 µM [rising, partial curve, poor fit]"
same,Potency,[9],inactive
same,Potency,[3],"inconclusive: 33.2 µM [cytotoxic, single point]"
same,Potency,[12],"inconclusive: 2.06 µM [cytotoxic, partial curve, poor fit]"
Cc1cnc(NC(=O)C2=C(O)c3ccccc3S(=O)(=O)N2C)s1,Potency,[1],"inactive and inconclusive: 6.61 µM [cytotoxic, partial curve, poor fit]"
same,Potency,[7],inactive
same,Potency,[8],inactive
same,Potency,[9],inactive
same,Potency,[5],inactive
same,Potency,[12],"inactive and inconclusive: 1.41 µM [cytotoxic, partial curve, poor fit]"
COCCCN1CCC(NC(=O)c2cc(Cl)c(N)c3c2OCC3)CC1,Potency,[1],inactive
same,Potency,[7],inactive
same,Potency,[6],inactive
CC1CNc2c(cccc2S(=O)(=O)N[C@@H](CCCN=C(N)N)C(=O)N2CC[C@@H](C)C[C@@H]2C(=O)O)C1 (stereo not given in full),Potency,[1],inactive
same,Potency,[3],inactive
same,Potency,[5],inactive
CCOC(=O)C1=C[C@@H](OC(CC)CC)[C@H](NC(C)=O)[C@@H](N)C1,Potency,[1],"inconclusive: 18.6 µM [cytotoxic, partial curve]"
same,Potency,[7],inactive
same,Potency,[8],inactive
same,Potency,[3],"inconclusive: 37.2 µM [cytotoxic, single point]"
O=C(CCCCCCC(=O)Nc1cccnc1)NO,Potency,[1],active: 3.72 µM
same,Potency,[7],active: 18.7 µM
same,Potency,[8],active: 7.43 µM
same,Potency,[9],active: 7.43 µM
same,Potency,[11],active: 8.33 µM
same,Potency,[5],active: 8.33 µM
same,Potency,[6],active: 6.62 µM
CC(C)[C@H](O)C(=O)N[C@@H](C)C(=O)N[C@@H]1C(=O)N(C)CCc2ccccc21,Potency,[1],inactive
same,Potency,[3],inactive
same,Potency,[6],inactive
same,Potency,[12],inactive
